Among all 350,000 compounds or so, about 260 (0.074%) were called active. Inconclusive means that the source gave no clear call. Such entries were picked first, then a sample of the others. The call rests on the fitted dose curve; in most records, active means well fitted inhibition curve with a large enough effect; inconclusive means small, poorly fitted or top-dose-only effect; inactive means no such curve, though single readings can be large or run the other way. Where the call is inconclusive, the potency comes from a doubtful curve fit.
Target: Ferritin light chain (Equus caballus) (UniProt P02791)
Experiment: qHTS Assay for Identification of Novel General Anesthetics; further: nearly all actives have a fitted effect of over 20% in size
Details: apoferritin/1-aminoanthracene competitive binding, fluorescence; activity change, negative = displacement: at 77.5 µM (top of the series)
Summary of the method: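 Apoferritin-based anesthetic binding model; compound displacement of fluorescent 1-AMA measured as endpoint fluorescence after 10 minutes at room temperature, scaled to free-ligand and complex controls.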
On the % scale 0 is the no-effect control and ±100 the full control effect; potency means the concentration at half of the fitted maximal effect; tags describe the fitted curve by direction and shape.

Sequence of UniProt P02791 (P02791 whole entry, looked up): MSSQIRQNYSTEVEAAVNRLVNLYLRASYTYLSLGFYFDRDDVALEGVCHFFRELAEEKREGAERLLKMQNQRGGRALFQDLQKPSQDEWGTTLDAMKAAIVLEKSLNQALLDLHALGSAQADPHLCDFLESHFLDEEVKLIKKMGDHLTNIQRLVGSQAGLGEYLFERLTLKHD

Activity change, negative = displacement, inactive:
N/C(=N\OC(=O)c1cccc(F)c1)c1ccccn1 -18.6%
Cc1cc(C(=O)N(C)C2CCCCC2)no1 -8.77%
CCN1C(=O)[C@@H]2[C@H]3C(=CC[C@@H]2C1=O)C1(OCCCO1)[C@H]1O[C@@H]1[C@H]3O -5.1% [at 15.3 µM]
CCn1c(SCC(=O)c2cccs2)nnc1-c1cccs1 -23.3%
Cc1cc(C)c2cc3c(N)c(C(=O)Nc4c(C)[nH]c(=O)[nH]c4=O)sc3nc2c1 80.9%
CCOc1ccc(NC(=O)Cn2cnc3nc4c(cc3c2=O)CCCC4)cc1 -8.25%
Cc1ccc(NC(=O)N(Cc2ccc3c(c2)OCO3)Cc2cc3cc4c(cc3[nH]c2=O)OCCO4)cc1 -13.9%
C=CCNC(=S)NNC(=O)c1ccc(OCCC)cc1 -0.672%
COc1ccc(C(=O)Nc2ccc(Cl)c(Cl)c2)c(OC)n1 -2.12%
COc1ccc(Br)cc1CNc1ccc2[nH]c(=O)[nH]c2c1 -16.8%
COc1cccc(-c2nnc3n2N=C(c2c(OC)cccc2OC)CS3)c1OC -18.8%
COc1ccc(-n2c(SC3CCOC3=O)nc3ccccc3c2=O)cc1OC (stereo unspecified) -19.7%
CCOc1cc(C(=O)NCCc2ccc(S(N)(=O)=O)cc2)cc(OCC)c1OCC 6.8%
O=C(CCN1CCN(C/C=C/c2ccccc2)CC1)Nc1ccccc1 -2.57%
C/C(=N\Nc1ccc(Cl)c(C(=O)O)c1)c1ccccn1 5.68%

Potency, inconclusive:
CCOc1ccc2nc(N3CCCCCC3)sc2c1 56.2 µM [inhibitor, single point]
O=[N+]([O-])c1cccc(-c2nc(-c3cccs3)c(-c3cccs3)[nH]2)c1 17.8 µM [inhibitor, partial curve]
COc1cc(/C=C2/C(=N)N3C=CSC3=NC2=O)ccc1OCCCOc1cc(C)ccc1C 12.6 µM [inhibitor, partial curve]
O=C(c1coc2ccc(O)cc12)C1CC1 22.4 µM [inhibitor, partial curve]
Cc1ccc(NC(=O)N2CCCc3ccccc32)cc1C 28.2 µM [inhibitor, partial curve]
Cn1cccc1C(=O)OCC(=O)NC(=O)NC1CCCCC1 20 µM [inhibitor, partial curve]
Cc1ccc(-n2c(SCc3nc(-c4ccccc4C)no3)nnc2-c2ccncc2)cc1C 28.2 µM [inhibitor, partial curve]
COC(=O)C1CSC(C(=O)OC)N1C(=O)Nc1ccc(Cl)c(Cl)c1 (stereo unspecified) 20 µM [inhibitor, single point]
O=c1c2ccccc2[nH]c(=S)n1Cc1cccnc1 17.8 µM [inhibitor, partial curve]
CC(C)=CCc1c(O)ccc(C(=O)Cc2ccccc2)c1O 35.5 µM [inhibitor, partial curve]
COc1cccc(C(=O)C2CCCN(C/C=C/c3ccccc3OC)C2)c1 (stereo unspecified) 22.4 µM [inhibitor, partial curve]
CCCCn1c(-c2csc3c2CCCC3)n[nH]c1=S 28.2 µM [inhibitor, partial curve]
CCCc1cc(C(=O)Nc2ccc(C(=O)c3ccc(F)cc3)cc2)n(C)n1 22.4 µM [inhibitor, partial curve]
Cc1ccc(NC2CCCN(C(=O)c3ccoc3)C2)cc1C (stereo unspecified) 35.5 µM [inhibitor, single point]
CCOc1cccc(-c2cc(-c3n[nH]c(=S)n3CC)c3ccccc3n2)c1 14.1 µM [inhibitor, partial curve, poor fit]
CC(C)c1ccc(NC(=O)C2CCCN(S(=O)(=O)c3cccnc3)C2)cc1 (stereo unspecified) 15.8 µM [inhibitor, partial curve]
NC(=O)CC(NC(=O)c1ccccc1)c1ccc(NCCOc2ccccc2)c([N+](=O)[O-])c1 (stereo unspecified) 56.2 µM [inhibitor, single point]
COc1cc(NC(=O)C2CC(c3cccc(Br)c3)=NO2)cc(OC)c1OC (stereo unspecified) 10 µM [inhibitor, full curve, poor fit]
COc1cccc(CSc2nnc(CSc3nc4nc(C)cc(C)n4n3)s2)c1 22.4 µM [inhibitor, partial curve]
Cc1ccc(S(=O)(=O)N2CCN(Cc3nc4ccccc4n3C)CC2)cc1 31.6 µM [inhibitor, partial curve]
CCN(CC)C(=O)Oc1cc(=O)n2c3c(cccc13)CCC2 39.8 µM [inhibitor, single point]
CCc1ccc(NC(=O)c2cnn(-c3c(C)cccc3C)c2C2CCNCC2)cc1 25.1 µM [inhibitor, partial curve]
Cc1ccc(S(=O)(=O)NCCSCc2ccco2)cc1 20 µM [inhibitor, partial curve]
CCc1ccc2oc(=O)cc(CN3CCCCC3C)c2c1 (stereo unspecified) 39.8 µM [inhibitor, partial curve]
CCOc1cc(C(=O)Nc2cc(C)ccn2)cc(OCC)c1OCC 56.2 µM [inhibitor, single point]
Nc1cc(OC(=O)c2cccs2)nn1S(=O)(=O)c1ccc(F)cc1 28.2 µM [inhibitor, partial curve]
O=C(CNC(=O)c1cccs1)OCc1ccc(Br)cc1 39.8 µM [inhibitor, single point]
CCOC(=O)C1=C(Cc2ccc(Cl)cc2)C(=O)c2ccccc2C1=O 44.7 µM [inhibitor, single point]
COc1cc(/C=N/Nc2nc3ccccc3[nH]c2=O)ccc1O 39.8 µM [inhibitor, single point]
O=C(Oc1ccc2ccccc2c1)c1ccccc1 14.1 µM [inhibitor, partial curve, poor fit]
CC(C)(C)NC(=O)NC(=O)COC(=O)COc1ccc2c(c1)CCC2 28.2 µM [inhibitor, partial curve]

From PubChem BioAssay AID485281 (National Center for Advancing Translational Sciences (NCATS), 2010)
